PubChem BioAssay AID1645882 (National Center for Advancing Translational Sciences (NCATS), 2021)
Among all 16,000 compounds or so, about 120 (0.75%) were called active. Roughly 4% stayed inconclusive and do not appear here. Calls follow the shape of the dose curve; as a rule, active = well fitted inhibition curve with a large enough effect; inconclusive = small, poorly fitted or top-dose-only effect; inactive = no such curve, though single readings can be large or run the other way. This is one part of the list.

What follows are compounds tested against Rap guanine nucleotide exchange factor 3 (Homo sapiens) (UniProt O95398) (assay: Validation qHTS for antagonist of cAMP-regulated guanine nucleotide exchange factor 3 (EPAC1)). Conditions: EPAC1 Rap1B-BODIPY-GDP exchange, fluorescence; activity change, negative = inhibition: at the top concentration.
Sequence of UniProt O95398 (O95398 whole entry, looked up): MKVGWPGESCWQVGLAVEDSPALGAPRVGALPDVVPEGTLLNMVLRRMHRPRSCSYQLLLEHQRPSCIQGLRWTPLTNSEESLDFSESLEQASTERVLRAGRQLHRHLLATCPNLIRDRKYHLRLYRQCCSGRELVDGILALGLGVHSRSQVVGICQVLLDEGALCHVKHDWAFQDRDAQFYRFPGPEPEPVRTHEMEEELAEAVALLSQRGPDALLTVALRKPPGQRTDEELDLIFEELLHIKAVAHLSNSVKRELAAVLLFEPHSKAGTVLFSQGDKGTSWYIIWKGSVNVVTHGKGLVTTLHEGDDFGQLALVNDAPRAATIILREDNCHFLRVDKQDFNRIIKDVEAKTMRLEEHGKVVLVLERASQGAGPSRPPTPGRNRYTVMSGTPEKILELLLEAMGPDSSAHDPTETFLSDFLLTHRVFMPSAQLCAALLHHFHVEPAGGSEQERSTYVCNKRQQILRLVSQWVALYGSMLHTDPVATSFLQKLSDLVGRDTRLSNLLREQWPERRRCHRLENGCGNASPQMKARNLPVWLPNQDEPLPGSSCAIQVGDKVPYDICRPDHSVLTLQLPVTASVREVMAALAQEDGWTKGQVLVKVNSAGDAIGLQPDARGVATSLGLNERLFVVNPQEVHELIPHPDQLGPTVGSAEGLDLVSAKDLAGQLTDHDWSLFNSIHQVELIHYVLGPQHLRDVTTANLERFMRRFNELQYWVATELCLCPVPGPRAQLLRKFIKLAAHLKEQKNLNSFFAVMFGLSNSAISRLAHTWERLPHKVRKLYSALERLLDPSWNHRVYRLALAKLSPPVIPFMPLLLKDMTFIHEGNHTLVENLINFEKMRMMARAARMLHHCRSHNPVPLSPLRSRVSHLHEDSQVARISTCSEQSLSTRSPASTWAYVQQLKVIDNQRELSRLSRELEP
Procedure, shortened: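 EPAC1 (100 nM) mixed with 250 nM RAP1B-BODIPY-GDP and 50 uM GDP; compounds in concentration series, 5 min at room temperature. Fluorescence (ex 480/em 540 nm) read every 5 min for 30 min; normalized to ATA control and DMSO.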
Also: nearly all actives have a fitted effect of over 75% in size.
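For activity change, negative = inhibition in this document: plate controls were DMSO for no effect and ATA control for full effect.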
Potency is read from the fitted curve at half-maximal effect.

SMILES | activity change, negative = inhibition | Potency
O=C(O)c1ccc2[nH]cc(CCCCN3CC=C(c4ccccc4)CC3)c2c1 | inactive: 18.8% | 
CNc1ccc2oc(C[C@H]3O[C@@]4(CC[C@H]3C)O[C@H]([C@H](C)C(=O)c3ccc[nH]3)[C@H](C)C[C@H]4C)nc2c1C(=O)O | inactive: -12.1% [at 75.8 µM] | 
CC(C)CCCC1(C)C=Cc2c(O)c3c(c(CCC(C)C)c2O1)OC12C(CC4CC1C(C)(C)OC2(CCC(C)C(=O)O)C4O)C3=O (stereo unspecified) |  | active: 70.8 µM
COc1ccc2c(c[n+](C)c3c4cc5c(cc4ccc23)OCO5)c1OC | inactive | 
CCOC(=O)c1ncn2c1[C@H]1CCCN1C(=O)c1cc(OC)ccc1-2 | inactive: 6.6% | 
CN1CC[C@@]2(C)c3cc(O)ccc3N(C)C12 (stereo partly specified) | inactive: -7.22% [at 75.8 µM] | 
C[N+]1(C)CCCCC1COC(=O)C(O)(c1ccccc1)c1ccccc1 (stereo unspecified) | inactive: -9.1% | 
CC(=O)CC1CCCCN1 (stereo unspecified) | inactive: 10.5% | 
C=C1C2CCC3[C@@](CC[C@@H]4C(C(=O)O)CC(OC5OC(CO)C(OS(=O)(=O)O)C(OS(=O)(=O)O)C5OC(=O)CC(C)C)C[C@]34C)(C2)C1O (stereo partly specified) | inactive: -13.9% | 
O=C1CCCCC1CN1CCCCC1 (stereo unspecified) | inactive: 10.1% | 
CCN1C[C@]2(COC)[C@H](O)C[C@H](OC)[C@@]34[C@@H]5C[C@@]6(O)[C@H](OC(=O)c7ccccc7)[C@@H]5[C@@](OC(C)=O)([C@@H]([C@H](OC)[C@H]23)[C@@H]14)[C@@H](O)[C@@H]6OC | inactive: 18.6% | 
CNc1ccc(C(=O)CC(O)CCC(C)C2OC(=O)CC(O)CC(=O)CC(O)CC(O)CC(O)CC(O)CC3(O)CC(O)C(C(=O)OC)C(CC(O[C@@H]4O[C@H](C)[C@@H](O)[C@H](N)[C@@H]4O)/C=C/C=C/C=C/C=C/C=C/C=C/C=C/C2C)O3)cc1 (stereo partly specified) | inactive: 14.8% | 
COc1cc2c3cc1Oc1c(OC)c(OC)cc4c1C(Cc1cccc(c1)Oc1ccc(c(O)c1)CC3N(C)CC2)N(C)CC4 (stereo unspecified) | inactive: 4.91% | 
CC(C)C[C@H](NC(=O)[C@H](Cc1ccccc1)NC(=O)CNC(=O)[C@H](C)NC(=O)[C@@H](N)Cc1ccc(O)cc1)C(=O)O | inactive: 9.98% [at 15.3 µM] | 
c1ccc(N=Nc2ccccc2)cc1 | inactive: 10.1% | 
CN(C)C(=O)Oc1cc(OC(=O)N(C)C)cc(C(O)CNC(C)(C)C)c1 (stereo unspecified) | inactive | 
CN(C(=O)Cc1ccc(Cl)c(Cl)c1)C(CN1CCCC1)c1cccc(OCC(=O)O)c1 (stereo unspecified) | inactive | 
NCCc1ccc(O)cc1 | inactive | 
CN(CCc1ccc(Cl)c(Cl)c1)[C@@H]1CCCC[C@@H]1N1CCCC1 | inactive: 27.9% | 
COc1ccc2c(c1)C13CCCC[C@@H]1C(C2)N(C)CC3 (stereo partly specified) | inactive: 13.5% | 
C[C@@H]1[C@H](O)[C@@H](C)C=CC=CCCC=CC=CC=CC=C[C@H](O[C@H]2O[C@@H](C)[C@H](O)[C@@H](N)[C@@H]2O)CC2O[C@](O)(C[C@@H](O)[C@H](O)CC[C@@H](O)C[C@@H](O)C[C@@H](O)CC(=O)O[C@H]1C)C[C@H](O)[C@H]2C(=O)O | inactive: 21.5% | 
CCc1cc(OC)c(C[C@H](C)N)cc1OC | inactive: 13.7% [at 320 µM] | 
c1ccc(CCN2CCOCC2)cc1 | inactive: 17.7% | 

SMILES | activity change, negative = inhibition | Potency
N[C@@]1(C(=O)O)CC[C@@H](C(=O)O)C1 | inactive: 14% [at 75.8 µM] | 
CN(C)C1C(=O)C(C(N)=O)=C(O)[C@@]2(O)C(=O)C3=C(O)c4c(O)cccc4[C@@](C)(O)C3CC12 (stereo partly specified) | inactive: 41.7% | 
Cn1cc(C(=O)C(=O)N[C@H]2CN3CCC2CC3)c2ccccc21 | inactive: 2.55% | 
C[C@@H]1OC(=O)[C@H]2C[C@H]3CCCC[C@@H]3[C@@H](/C=C/[C@H]3CCC[C@H](C)N3C)[C@@H]12 | inactive: 22.9% | 
CNC(C)Cc1ccc2c(c1)OCO2 (stereo unspecified) | inactive: 37.1% [at 320 µM] | 
CCC1(c2ccc(N)cc2)CCC(=O)NC1=O (stereo unspecified) | inactive | 
CC[C@@H](CO)NC(=O)[C@H]1C=C2c3cccc4c3c(cn4C)C[C@H]2N(C)C1 | inactive: -3.33% | 
C[C@H](Cc1ccc2c(c1)OC(C(=O)O)(C(=O)O)O2)NC[C@H](O)c1cccc(Cl)c1 | inactive: -8.24% [at 75.8 µM] | 
CCCCCCCCCC(=O)O[C@H]1CC[C@H]2[C@@H]3CCC4=CC(=O)CC[C@]4(C)[C@H]3CC[C@]12C | inactive: 8.32% | 
C[N+]1(C)CCN(c2ccccc2)CC1 | inactive | 
ClC1=C(Cl)[C@]2(Cl)[C@@H]3[C@@H]4C[C@@H]([C@H]5O[C@@H]45)[C@@H]3[C@@]1(Cl)C2(Cl)Cl | inactive: 28.7% [at 320 µM] | 
[H+].[H+].[Hg+2].[O-]B([O-])[O-].[c-]1ccccc1 | inactive: 13% | 
CCOC(=O)[C@]12Cc3cc(C)ccc3[C@H]1N(Cc1ccccc1)C(=O)c1ccccc12 | inactive: 3.03% | 
C[C@@H](N)[C@@H](O)c1ccccc1 | inactive: 15.7% [at 75.8 µM] | 
NC(=O)COc1c(F)cc(SCCNS(=O)(=O)c2ccccc2)cc1F | inactive: 19.6% [at 75.8 µM] | 
CCCN1CCC[C@H](c2cccc(O)c2)C1 | inactive | 
COc1cc2nc(N(C)C)c(CNCCc3c[nH]c4ccccc34)cc2c(OC)c1OC | inactive: 14.4% | 
COc1cc(CCN)cc(OC)c1OC | inactive: 16.7% [at 320 µM] | 
COc1cccc2c1C13CC[N+]4(CC5CC5)CO[C@]1(CCC(=O)C3)C4C2 | inactive: 14.9% | 
CCCN1CCO[C@@H]2c3cc(O)ccc3OC[C@@H]21 | inactive: -19.1% | 
C[C@@H]1O[C@@H](O[C@H]2C[C@@H](O)[C@]3(CO)[C@H]4[C@H](O)C[C@]5(C)[C@@H](C6=CC(=O)OC6)CC[C@]5(O)[C@@H]4CC[C@]3(O)C2)[C@H](O)[C@H](O)[C@H]1O | inactive | 
Clc1cc(I)cc(Cl)c1NC1=NCCN1 | inactive: 14.9% [at 75.8 µM] | 
CC1NCCOC1c1ccccc1 (stereo unspecified) | inactive: 21.8% | 
